These results are taken from PMC9911399, “Two distinct binding modes provide the RNA-binding protein RbFox with extraordinary sequence specificity”.

The chains are these.
T1: RBFOX1 RRM (Homo sapiens, UniProt Q9NWB1 109-208)
T1 sequence: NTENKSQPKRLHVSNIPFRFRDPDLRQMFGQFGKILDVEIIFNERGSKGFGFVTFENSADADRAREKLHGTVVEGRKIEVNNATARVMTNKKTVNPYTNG

B1: AAAUAUU (DNA:RNA)
RNA: GGGAGACCGGAAUUCAGAUUGUCCAAAUAUUUUAAAUCCCGUCGUAGCCACCA
DNA 1: CAATCTGAATTCCGGTCTCCC
DNA 2: TGGTGGCTACGACGGGATT
B2: UAUUCGU (DNA:RNA)
RNA: B1 RNA with A25U, A27U, A29C, U30G
DNA 1: CAATCTGAATTCCGGTCTCCC
DNA 2: TGGTGGCTACGACGGGATT
B3: UCAAAUC (DNA:RNA)
RNA: B1 RNA with A25U, A26C, U28A, U31C
DNA 1: CAATCTGAATTCCGGTCTCCC
DNA 2: TGGTGGCTACGACGGGATT
B4: GCACCCA (DNA:RNA)
RNA: B1 RNA with A25G, A26C, U28C, A29C, U30C, U31A
DNA 1: CAATCTGAATTCCGGTCTCCC
DNA 2: TGGTGGCTACGACGGGATT
B5: AGGCAGU (DNA:RNA)
RNA: B1 RNA with A26G, A27G, U28C, U30G
DNA 1: CAATCTGAATTCCGGTCTCCC
DNA 2: TGGTGGCTACGACGGGATT
B6: UGGUGCC (DNA:RNA)
RNA: B1 RNA with A25U, A26G, A27G, A29G, U30C, U31C
DNA 1: CAATCTGAATTCCGGTCTCCC
DNA 2: TGGTGGCTACGACGGGATT
B7: UCAUGAG (DNA:RNA)
RNA: B1 RNA with A25U, A26C, A29G, U30A, U31G
DNA 1: CAATCTGAATTCCGGTCTCCC
DNA 2: TGGTGGCTACGACGGGATT
B8: UAUCGUA (DNA:RNA)
RNA: B1 RNA with A25U, A27U, U28C, A29G, U31A
DNA 1: CAATCTGAATTCCGGTCTCCC
DNA 2: TGGTGGCTACGACGGGATT
B9: GGGUUUU (DNA:RNA)
RNA: B1 RNA with A25G, A26G, A27G, A29U
DNA 1: CAATCTGAATTCCGGTCTCCC
DNA 2: TGGTGGCTACGACGGGATT
B10: GCGCUAA (DNA:RNA)
RNA: GGGAGACCGGAAUUCAGAUUGUCCGCGCUAAUUAAAUCCCGUCGUAGCCACCA
DNA 1: CAATCTGAATTCCGGTCTCCC
DNA 2: TGGTGGCTACGACGGGATT
B11: AGCGUAG (DNA:RNA)
RNA: B10 RNA with G25A, C26G, G27C, C28G, A31G
DNA 1: CAATCTGAATTCCGGTCTCCC
DNA 2: TGGTGGCTACGACGGGATT
B12: UCCGUGU (DNA:RNA)
RNA: B10 RNA with G25U, G27C, C28G, A30G, A31U
DNA 1: CAATCTGAATTCCGGTCTCCC
DNA 2: TGGTGGCTACGACGGGATT
B13: UCAGAGU (DNA:RNA)
RNA: B1 RNA with A25U, A26C, U28G, U30G
DNA 1: CAATCTGAATTCCGGTCTCCC
DNA 2: TGGTGGCTACGACGGGATT
B14: ACCUGGU (DNA:RNA)
RNA: B1 RNA with A26C, A27C, A29G, U30G
DNA 1: CAATCTGAATTCCGGTCTCCC
DNA 2: TGGTGGCTACGACGGGATT
B15: UGUCUUA (DNA:RNA)
RNA: B10 RNA with G25U, C26G, G27U, A30U
DNA 1: CAATCTGAATTCCGGTCTCCC
DNA 2: TGGTGGCTACGACGGGATT
B16: AGCGUUG (DNA:RNA)
RNA: B1 RNA with A26G, A27C, U28G, A29U, U31G
DNA 1: CAATCTGAATTCCGGTCTCCC
DNA 2: TGGTGGCTACGACGGGATT
B17: AGACACU (DNA:RNA)
RNA: B1 RNA with A26G, U28C, U30C
DNA 1: CAATCTGAATTCCGGTCTCCC
DNA 2: TGGTGGCTACGACGGGATT
B18: CCUUGGG (DNA:RNA)
RNA: B1 RNA with A25C, A26C, A27U, A29G, U30G, U31G
DNA 1: CAATCTGAATTCCGGTCTCCC
DNA 2: TGGTGGCTACGACGGGATT
B19: CGGAAAU (DNA:RNA)
RNA: B1 RNA with A25C, A26G, A27G, U28A, U30A
DNA 1: CAATCTGAATTCCGGTCTCCC
DNA 2: TGGTGGCTACGACGGGATT
B20: GGGCGGG (DNA:RNA)
RNA: B10 RNA with C26G, U29G, A30G, A31G
DNA 1: CAATCTGAATTCCGGTCTCCC
DNA 2: TGGTGGCTACGACGGGATT

Numbering of substitutions follows the chain as printed; changes in the protein carry UniProt numbers. The list shows a part of the results.

The experiment deals with T1, RBFOX1 RRM. Briefly: EMSA; HiTS-Eq, 1 nM pool, 10 min; buffer printed only for the single-RNA assays: 10 mM Tris pH 7.5, 150 mM NaCl, 3.4 mM EDTA, 0.001% NP-40, 30 C. As to conditions: tags: His6 N-terminal (pET28a); label: 5' 32P. A digest of the protocol:
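Purified wild-type or mutant RbFox RRM at increasing concentrations was equilibrated with 1 nM of 5′-radiolabelled RNA carrying 7 randomized nucleotides for 10 min in 50 µL. Unbound RNA was separated by 8% native PAGE and sequenced. Relative association constants came from read-count changes of each RNA species compared with the control reaction, normalised to the cognate motif.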
(In general: A gel shift assay detects complexes by their altered migration in electrophoresis.)
Take B1: the binding signal is 0.00092 KA relative to UGCAUGU.
For B2, the binding signal was 0.0188 KA relative to UGCAUGU.
For B3 the value was 0.000633 KA relative to UGCAUGU.
Regarding B4, the binding signal is 0.00375 KA relative to UGCAUGU.
For B5 the value was 0.0121 KA relative to UGCAUGU; for B6, 0.0219 KA relative to UGCAUGU.
On to B7, for which the binding signal was 0.0138 KA relative to UGCAUGU.
Under B8 stands 0.00791 KA relative to UGCAUGU.
B9: the binding signal was 0.0323 KA relative to UGCAUGU.
Take B10: the binding signal was 0.0126 KA relative to UGCAUGU.
Consider B11, for which the binding signal is 0.0147 KA relative to UGCAUGU.
For B12, the binding signal is 0.0135 KA relative to UGCAUGU.
For B13 the value was 0.00735 KA relative to UGCAUGU.
As for B14, the binding signal was 0.0103 KA relative to UGCAUGU.
For B15 the value was 0.0106 KA relative to UGCAUGU; for B16, 0.0153 KA relative to UGCAUGU; for B17, 0.00426 KA relative to UGCAUGU.
As to B18, the binding signal is 0.00389 KA relative to UGCAUGU.
B19: the binding signal was 0.0202 KA relative to UGCAUGU.
As to B20, the binding signal is 0.0189 KA relative to UGCAUGU.
